Over roughly 81,000 sequences, “one-hybrid fitness for binding parS DNA” has its median near -0.17; the highest 2% begin near 0.51. The list shows a part of the results.
B1: Caulobacter ParB omega fusion; a variant is named by its letters at X, in order, B8GW30 (parent)
chain: MESVVVGEPGMSEGRRGLGRGLSALLGEVDAAPAQAPGEQLGGSREAPIEILQRNPDQPRRTFREEDLEDLSNSIREKGVLQPILVRPSPDTAGEYQIVAGERAWRAAQRAGLKTVPIMVRELDDLAVLEIGIIENVQRADLNVLEEALSYKVLMEKFERTQENIAQTIGKSXSHVANXMRLLXLPDEVQSYLVSGELTAXHARAIAAAADPVALAKQIIEGGLSVRETEALARKAPNLSAGKSKGGRPPRVKDTDTQALESDLSSVLGLDVSIDHRGSTGTLTITYATLEQLDDLCNRLTRGI

Variants of: B1
Assay: one-hybrid fitness for binding parS DNA (scaled: cognate 1, non-cognate 0); higher = stronger binding
Conditions: with parS DNA site
Outline: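 Caulobacter ParB libraries with four specificity codons randomised were screened by bacterial one-hybrid selection in the E. coli USO strain, using a HIS3 reporter whose site lies 19 bp from the promoter. Selection ran for 48 hours at 37°C on M9 lacking histidine, with 0.1 mM IPTG and 5 mM 3-AT. Plasmids were Illumina-sequenced before and after selection, three replicate libraries were pooled, and variants with under 10 reads were dropped. Fitness is the log change in each variant's read ratio to wild type, rescaled against the cognate and non-cognate sites.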
In the case of IWKT, the “one-hybrid fitness for binding parS DNA” value is reported as ≤ 0.2.
SDVL was tested, and the “one-hybrid fitness for binding parS DNA” value was ≤ 0.2.
In the case of DIND, the “one-hybrid fitness for binding parS DNA” value is reported as ≤ 0.2.
In the case of YGVW, the “one-hybrid fitness for binding parS DNA” value is reported as ≤ 0.2.
With QDTN the “one-hybrid fitness for binding parS DNA” value was ≤ 0.2.
VWLT was tested, and the “one-hybrid fitness for binding parS DNA” value was ≤ 0.2.
With QWKC the “one-hybrid fitness for binding parS DNA” value was ≤ 0.2.
With HICC the “one-hybrid fitness for binding parS DNA” value was ≤ 0.2.
QTQT was tested, and the “one-hybrid fitness for binding parS DNA” value was ≤ 0.2.
In the case of RTRL, the “one-hybrid fitness for binding parS DNA” value is reported as ≤ 0.2.
In the case of RAGK, the “one-hybrid fitness for binding parS DNA” value is reported as ≤ 0.2.
QKII was tested, and the “one-hybrid fitness for binding parS DNA” value was ≤ 0.2.
For RASR, the “one-hybrid fitness for binding parS DNA” value was ≤ 0.2.
QMRN was tested, and the “one-hybrid fitness for binding parS DNA” value was ≤ 0.2.
AHGE was tested, and the “one-hybrid fitness for binding parS DNA” value was 0.38.
CCRA was tested, and the “one-hybrid fitness for binding parS DNA” value was ≤ 0.2.
In the case of PLTS, the “one-hybrid fitness for binding parS DNA” value is reported as ≤ 0.2.
For DEVR, the “one-hybrid fitness for binding parS DNA” value was ≤ 0.2.
YTSM was tested, and the “one-hybrid fitness for binding parS DNA” value was ≤ 0.2.
For MAKW, the “one-hybrid fitness for binding parS DNA” value was ≤ 0.2.
In the case of QSSN, the “one-hybrid fitness for binding parS DNA” value is reported as ≤ 0.2.
In the case of VGWS, the “one-hybrid fitness for binding parS DNA” value is reported as ≤ 0.2.
For RIIM, the “one-hybrid fitness for binding parS DNA” value was 0.273.
In the case of SSFR, the “one-hybrid fitness for binding parS DNA” value is reported as ≤ 0.2.
For QIKE, the “one-hybrid fitness for binding parS DNA” value was ≤ 0.2.
RRRI was tested, and the “one-hybrid fitness for binding parS DNA” value was ≤ 0.2.
With KAPS the “one-hybrid fitness for binding parS DNA” value was ≤ 0.2.
With HASR the “one-hybrid fitness for binding parS DNA” value was ≤ 0.2.
With CWLR the “one-hybrid fitness for binding parS DNA” value was ≤ 0.2.
In the case of WLKR, the “one-hybrid fitness for binding parS DNA” value is reported as ≤ 0.2.
With ELTI the “one-hybrid fitness for binding parS DNA” value was ≤ 0.2.
In the case of RPDV, the “one-hybrid fitness for binding parS DNA” value is reported as ≤ 0.2.
For QHGP, the “one-hybrid fitness for binding parS DNA” value was ≤ 0.2.
For KGPT, the “one-hybrid fitness for binding parS DNA” value was ≤ 0.2.
In the case of WKTV, the “one-hybrid fitness for binding parS DNA” value is reported as ≤ 0.2.
For TRTL, the “one-hybrid fitness for binding parS DNA” value was ≤ 0.2.
PWAG was tested, and the “one-hybrid fitness for binding parS DNA” value was ≤ 0.2.
In the case of FKNR, the “one-hybrid fitness for binding parS DNA” value is reported as ≤ 0.2.
In the case of RLNA, the “one-hybrid fitness for binding parS DNA” value is reported as 0.62.
With SADL the “one-hybrid fitness for binding parS DNA” value was ≤ 0.2.
For FQLG, the “one-hybrid fitness for binding parS DNA” value was ≤ 0.2.
QPHW was tested, and the “one-hybrid fitness for binding parS DNA” value was ≤ 0.2.
For NPPR, the “one-hybrid fitness for binding parS DNA” value was ≤ 0.2.
For GTQT, the “one-hybrid fitness for binding parS DNA” value was ≤ 0.2.
With DLCR the “one-hybrid fitness for binding parS DNA” value was ≤ 0.2.
For ANTS, the “one-hybrid fitness for binding parS DNA” value was ≤ 0.2.
In the case of KCDS, the “one-hybrid fitness for binding parS DNA” value is reported as ≤ 0.2.
In the case of CHYD, the “one-hybrid fitness for binding parS DNA” value is reported as 0.273.
AADF was tested, and the “one-hybrid fitness for binding parS DNA” value was ≤ 0.2.
In the case of PCEL, the “one-hybrid fitness for binding parS DNA” value is reported as ≤ 0.2.
In the case of PLVD, the “one-hybrid fitness for binding parS DNA” value is reported as ≤ 0.2.
MRYT was tested, and the “one-hybrid fitness for binding parS DNA” value was ≤ 0.2.
For SFRC, the “one-hybrid fitness for binding parS DNA” value was ≤ 0.2.
For QQCT, the “one-hybrid fitness for binding parS DNA” value was ≤ 0.2.
With HMVG the “one-hybrid fitness for binding parS DNA” value was ≤ 0.2.
In the case of RWQD, the “one-hybrid fitness for binding parS DNA” value is reported as ≤ 0.2.
In the case of RRAK, the “one-hybrid fitness for binding parS DNA” value is reported as ≤ 0.2.
In the case of KASP, the “one-hybrid fitness for binding parS DNA” value is reported as ≤ 0.2.
With QKCW the “one-hybrid fitness for binding parS DNA” value was ≤ 0.2.
With FADA the “one-hybrid fitness for binding parS DNA” value was ≤ 0.2.
With THNL the “one-hybrid fitness for binding parS DNA” value was ≤ 0.2.
In the case of RKAF, the “one-hybrid fitness for binding parS DNA” value is reported as ≤ 0.2.
ELRE was tested, and the “one-hybrid fitness for binding parS DNA” value was ≤ 0.2.
In the case of RIIQ, the “one-hybrid fitness for binding parS DNA” value is reported as ≤ 0.2.
For IGTS, the “one-hybrid fitness for binding parS DNA” value was ≤ 0.2.
In the case of RCDF, the “one-hybrid fitness for binding parS DNA” value is reported as 0.213.
For RVGC, the “one-hybrid fitness for binding parS DNA” value was 0.934.
For LKNT, the “one-hybrid fitness for binding parS DNA” value was ≤ 0.2.
With SQPL the “one-hybrid fitness for binding parS DNA” value was ≤ 0.2.
For LEPL, the “one-hybrid fitness for binding parS DNA” value was ≤ 0.2.
IWLS was tested, and the “one-hybrid fitness for binding parS DNA” value was ≤ 0.2.
GHVD was tested, and the “one-hybrid fitness for binding parS DNA” value was ≤ 0.2.
LFMS was tested, and the “one-hybrid fitness for binding parS DNA” value was ≤ 0.2.
For LTMF, the “one-hybrid fitness for binding parS DNA” value was ≤ 0.2.
With QYYA the “one-hybrid fitness for binding parS DNA” value was ≤ 0.2.
With ATSY the “one-hybrid fitness for binding parS DNA” value was ≤ 0.2.
In the case of PQAE, the “one-hybrid fitness for binding parS DNA” value is reported as ≤ 0.2.
RFPA was tested, and the “one-hybrid fitness for binding parS DNA” value was ≤ 0.2.
With HRTC the “one-hybrid fitness for binding parS DNA” value was 0.341.
With FRLK the “one-hybrid fitness for binding parS DNA” value was ≤ 0.2.
In the case of RLFN, the “one-hybrid fitness for binding parS DNA” value is reported as 0.395.
For AQCR, the “one-hybrid fitness for binding parS DNA” value was ≤ 0.2.
WCER was tested, and the “one-hybrid fitness for binding parS DNA” value was ≤ 0.2.
For TDYL, the “one-hybrid fitness for binding parS DNA” value was ≤ 0.2.
VIDN was tested, and the “one-hybrid fitness for binding parS DNA” value was ≤ 0.2.
For YNSV, the “one-hybrid fitness for binding parS DNA” value was ≤ 0.2.
For AYTR, the “one-hybrid fitness for binding parS DNA” value was ≤ 0.2.
With GMER the “one-hybrid fitness for binding parS DNA” value was ≤ 0.2.
In the case of YNRM, the “one-hybrid fitness for binding parS DNA” value is reported as ≤ 0.2.
In the case of QTPL, the “one-hybrid fitness for binding parS DNA” value is reported as ≤ 0.2.
For HMQS, the “one-hybrid fitness for binding parS DNA” value was ≤ 0.2.
For RQEV, the “one-hybrid fitness for binding parS DNA” value was ≤ 0.2.
WLPT was tested, and the “one-hybrid fitness for binding parS DNA” value was ≤ 0.2.
VAGM was tested, and the “one-hybrid fitness for binding parS DNA” value was ≤ 0.2.
ACVT was tested, and the “one-hybrid fitness for binding parS DNA” value was ≤ 0.2.
In the case of HVGP, the “one-hybrid fitness for binding parS DNA” value is reported as ≤ 0.2.
With KQCR the “one-hybrid fitness for binding parS DNA” value was ≤ 0.2.
REAV was tested, and the “one-hybrid fitness for binding parS DNA” value was ≤ 0.2.
